In all, about 16,000 sequences were measured (“Z-score”: median about -0.37, highest 2% from about 3.2 on). The list shows a part of the results.
These sequences were tested on RBM10 RRM1-ZnF (GST-tagged construct) (assay: RNAcompete 7-mer binding Z-score; higher = stronger binding preference).
Method: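 RNAcompete: 20 pmol GST-tagged RBM10 RNA-binding constructs were incubated with a designed RNA pool of about 241,000 sequences up to 41 nt (1.5 nmol) on glutathione beads for 30 min at 4 °C and washed. Bound RNAs were identified by microarray hybridisation. Each RNA 7-mer is scored by a one-sided Z-score of its enrichment, computed over probes that contain the 7-mer within longer pool sequences.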

Sequence	RNAcompete 7-mer binding Z-score
UACACAU	-0.392
UAUAUCC	-0.691
GCGAUUG	0.212
GUACUCG	-0.165
UUAAGCG	-0.522
CGAACAC	-0.613
AUCUCGC	-0.75
GACACAC	-0.366
GCCAUUA	-0.714
GAUUAAA	-0.0967
AGCCACG	-0.188
AGUGCUU	-0.532
UGACUGU	-0.646
UCCCUUU	-0.912
GCAGGGC	1.35
UACGGUA	0.758
AGGACUC	-0.425
CUGGCCC	-0.168
UUGAUGC	-0.337
GGCUACG	0.602
CUCCGUC	-0.935
UGAAUAC	-0.366
CCCAGCC	-0.324

Sequence	RNAcompete 7-mer binding Z-score
GGUCGUG	1.25
CUUCCAU	-0.766
CGCCAUA	-0.594
CUUUUUU	-0.948
AACACGA	-0.314
CAAUGUU	-0.649
AGAGGAC	0.615
UGAACAU	-0.373
GUUGCGC	0.215
CACAUAA	-0.678
UGCGACA	-0.145
UUCCUCU	-0.639
UCUGAGG	-0.149
GAUUACC	-0.565
GACGUCG	-0.285
AUUUAAC	-0.561
GACCUGG	-0.191
ACAACGG	0.644
CCCCUGU	-0.5
ACUUUAA	-0.795
AUCAUUC	-0.753
AAACCAU	-0.649
ACAGAGA	0.0885

Sequence	RNAcompete 7-mer binding Z-score
AGAGUGA	0.81
CUAAUUA	-0.685
UUAUGUA	-0.23
UGAUGAC	-0.0512
AAGCCGA	-0.578
CGCAGCG	-0.11
UGAGUUG	0.625
GUCCGGG	0.797
AUGACCU	-0.795
UGGCCUU	-0.642
UGCCAUU	-0.967
AAAAGAA	0.108
GAUGUAU	0.215
AGGCUGU	-0.181
UUGAACC	-0.633
CACUCCU	-0.776
CGCGUCG	-0.0155
GUCGGCG	0.368
AGUAUCC	-0.636
CGCCAAC	-0.444
ACAUCUC	-0.711
AUGUGAA	0.563
ACGAUCC	-0.659

Sequence	RNAcompete 7-mer binding Z-score
GAGUUCC	-0.474
AUACUGA	-0.123
GGAAGUA	1.44
CUAGGAC	0.335
GCUCAGG	0.547
ACGUAUC	-0.62
ACAAUUG	-0.0772
GCCUCCC	-0.337
GAGACUA	-0.279
CACAACC	-0.552
UAGGAAU	1.22
CUCGACG	-0.558
UCUCCGC	-0.678
CCUGAUU	-0.867
CCUUGGC	-0.591
GCCUUAU	-0.915
CUGUGAA	-0.292
GAUCAGA	0.316
ACUGCGG	0.397
AACCACA	-0.454
UAGAACC	-0.578
GUCACUU	-0.539
CUCAUAC	-0.831

Sequence	RNAcompete 7-mer binding Z-score
UUAGCGA	-0.0837
CUGCAUG	-0.493
CCCAAUC	-0.607
AGUGUUG	0.725
ACCUACA	-0.72
AACUCGG	-0.214
GGAUAGU	1.66
GGGAUAU	3.1
GGUUUAU	0.55
UGUUACU	-0.516
CUUCAGU	-0.467
CAGAACG	0.000789
GGAACGA	1.3
UCACGAG	-0.363
UAAUGGG	2.84
AUCCGCU	-0.883
GGCCCAC	-0.649
CCUUACG	-0.818
UAUACAG	-0.321
CCCUCGU	-0.727
GCGCCUA	-0.652
ACCGCUG	-0.662
GCAUGAA	0.0983

Sequence	RNAcompete 7-mer binding Z-score
AGGGGCA	2.47
UAUGACA	-0.136
UAGAGUC	-0.223
GUGUUUA	0.27
UUGGAGG	2.58
UUGCAAU	-0.688
UGCACCC	-0.431
CUAAAGA	-0.334
GAUUCCA	-0.617
UGUUCCG	-0.565
UAACAGC	-0.438
AGAGAGA	0.244
UUCGCAC	-0.714
GAAUAUU	-0.324
UCUCCCG	-0.623
AUAGUGG	1.49
GGAUUAU	0.764
CACUCAA	-0.548
UGGACGA	1.47
GUACUAC	-0.191
GCUUUCC	-0.633
AUACUAG	-0.337
UGAUUUG	-0.24

Sequence	RNAcompete 7-mer binding Z-score
UCCGAGU	-0.701
ACGAUAU	-0.496
GACACUA	-0.457
CGUUAUC	-0.798
UUACAGA	-0.272
AUGUCGC	-0.415
GAAGCUA	-0.217
GAUCUGC	-0.785
CAUUUAC	-0.85
GUUUCGA	-0.396
UUGAAAG	0.355
UAUCUAU	-0.555
GUAGCAA	0.345
CGCUGCC	-0.487
GAUGUGU	0.625
CCCGUCC	-0.571
CACCACC	-0.0772
CAAAUGA	-0.246
UUCAUAA	-0.698
UUGAUCG	-0.188
UGCUCAA	-0.568
GGAUUCA	0.215
UAUUGAU	-0.337

Sequence	RNAcompete 7-mer binding Z-score
UAACCAC	-0.578
AUUAACA	-0.279
AAGGCUC	-0.0804
GUCUUUC	-0.792
UGUUUCC	-0.6
UAACUAC	-0.61
CCUUAAC	-0.925
UACAUAC	-0.402
CAGUUGA	-0.0512
AAACUCA	-0.597
GAAAUUC	-0.561
UCCCAUG	-0.392
AGUUCUU	-0.759
CAUACCA	-0.639
GGGAAGU	3
UCUAGUA	-0.555
UGGCAGG	1.8
CUCUACC	-0.831
UCGUUCU	-0.776
UGACUCA	-0.48
UUUAGCC	-0.915
UAUUCUG	-0.772
